Laboratory results reported in the supplement of paper PMC11417369.
± gives the standard deviation of the averaged measurements. The list shows a part of the results.

test system: PfAP2-EXP AP2 domain (GST-tagged); assay: gcPBM binding intensity (ln(normalized median fluorescence intensity)); higher = stronger DNA binding
In short: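 Binding intensity is the highest Masliner-normalised natural-log median intensity over replicate spots in either probe orientation. To obtain it, GST-tagged P. falciparum DNA-binding domains made in E. coli were incubated for 1 h on an Agilent 4 × 180k array of primer-extended double-stranded 36-bp intergenic genomic probes plus negative controls. Detection used Alexa488 anti-GST antibody with scanning at 488 nm.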

Sequence	gcPBM binding intensity (ln)
CAAGGAACCAGACACACACACATAAATGTATTTATA [CACACA_site6491]	8.39 ± 0.48
TTTTTTTTTTTCTTTTGTACGTATAAAATTATATAA [XGTACX_site2453]	8.59 ± 0.23
TTTTTATCTAATCTAATATTATATTATACATATAAT [XGTACX_negctrl_site275]	8.22 ± 0.34
TTTATGGAATAATCACGTACACACAAGAAAAAAAAA [XGTACX_site985]	8.84 ± 0.46
TGTGTGTGCTTATTTTGTACATATTAGGTAAATATT [XGTACX_site6329]	8.79 ± 0.3
CAACAAAAGTTATTTACACACAAAAGGCAAGGAAAT [CACACA_site7013]	8.94 ± 0.47
ACTACGTGGATTAGTTCAAGGGAACACGTCCTATAC [CACACA_negctrl_site1427]	8.34 ± 0.36
ACTAAACGAATAAATTGTACAAAGAAATATATTCAT [XGTACX_site6766]	8.6 ± 0.42
TAAAAAATTACATATTGTACAGGCAAAATTACACAT [XGTACX_site1152]	8.67 ± 0.54
ATATTTCATTTTTGTACACACAACGTTGGAGGGTTT [CACACA_site3043]	8.89 ± 0.53
AAAGGAAATAAAAACGCACACAGAAATAATATCTAT [CACACA_site457]	8.8 ± 0.56
TCATATAAATACACGTGTACATATATATATTACAGT [XGTACX_site1954]	8.74 ± 0.071
AGTTTGCATATGGAAGTGCATTACCTTGAACATCAT	8.57 ± 0.26
AATATAAAAAATAGTTGTACTATATTTAAATATGAC [XGTACX_site2937]	8.43 ± 0.35
AAAAAATATATATGCACACACAAAAAAACAAATTAA [CACACA_site1278]	8.78 ± 0.38
AAGGAATAGGCATATACACACAGGTACAGATATATA [CACACA_site4402]	8.85 ± 0.43
TTTAAATATTACATATGTACTTATAAATATATATAT [XGTACX_site1284]	9.165 ± 0.021
AAAAAAAAAAAAAACACACAAATCATAAATAAATAT [CACACA_site6362]	8.46 ± 0.56
TAATAGTATATAAAAAGTACATAATAAGATATGAAA [XGTACX_site1000]	8.58 ± 0.4
AAAAAAAAAATTGAAAGTACAAATATGTATTATATA [XGTACX_site2455]	8.27 ± 0.42
TAAAATATGTCATGTGGTACATGAATAGCTTTTATT [XGTACX_site3809]	8.23 ± 0.32
ATTATGTGCCAATACACACACACATATATATATATA [CACACA_site468]	9.91 ± 0.44
ATATAAAAAAATAAAACACACACATATATATTATAT [CACACA_site8909]	8.68 ± 0.42

Sequence	gcPBM binding intensity (ln)
ATTTAAGCATTATTTTGTACGAAAATAAAAAAATGA [XGTACX_site6958]	8.55 ± 0.38
TTTTTGTTATATAAAGTGCAGTGACAAGCAGTTTAA	8.65 ± 0.27
AGTGGTGTTAAATGTTGTACGATTTTGTGTTATTCG [XGTACX_site178]	8.82 ± 0.6
ATATATATATAATATAGTACGTATAATATATGAATC [XGTACX_site4385]	9.34 ± 0.32
AAAGGAAAATGTGTAAAAAGAAATGCTAGGTATATA [GTGCAC_negctrl_site699]	8.93 ± 0.42
TATAATGCTCTTCTTTGTACATATTATGATTATATT [XGTACX_site2332]	8.97 ± 0.38
TATGTATAATTTCATTGTACTTTTGATATTATCATA [XGTACX_site280]	8.25 ± 0.37
TATTAGAACATATATGCATGCAATAGATATTCCAAT [TGCATGCA_site297]	9.875 ± 0.064
TTTCTAAAAATAAGAACACACACATATAAGCATATA [CACACA_site8714]	8.6 ± 0.64
TTTTTTTAAATATACACACACATTTATACAGATATA [CACACA_site5811]	8.41 ± 0.4
AGTCTGAATAAAATTACACACATATACAGATATATA [CACACA_site5054]	8.26 ± 0.4
ATATCATTTTCTAGCACACACATTGTTATTACCTTG [CACACA_site902]	8.91 ± 0.38
AAGATAATCACAAAATGTACAGGAAATATGACAACC [XGTACX_site3607]	9.07 ± 0.5
TATGTAACAAAAAAAAGTACACATATATATAGTGTA [XGTACX_site7772]	8.52 ± 0.39
ACTGCGTTTTTACACGCGCACTGCAATGAACAATAT	8.56 ± 0.33
TTTTCTAAATTAATAATACACACTTGCTAAAATCAT [CACACA_site3207]	8.34 ± 0.49
AATGGTATAAACAATACACACATAATATATATATTG [CACACA_site4997]	8.53 ± 0.4
AAGAAAAAGGAACGGAAAAACAAACAAGGGGCCCAA [TGCATGCA_negctrl_site4]	8.81 ± 0.71
ATTTTTTTTATGAGGTGTACTCATATAATAACTACA [XGTACX_site5074]	8.83 ± 0.18
TATTTTTTTTTTTAATGTACAAACAAATTATGTTGG [XGTACX_site2873]	8.43 ± 0.59
TTTTCTAAAGTAAGTTAAGATATGCAAAAAAAAGAA [GTGCAC_negctrl_site242]	8.91 ± 0.46
TATAAAAGGTAAGAGTGTACAAGTAAAAAATTTTTA [XGTACX_site771]	8.94 ± 0.39
